Experimental data: PubChem BioAssay (Tox21)
Values joined by “and” are separate entries in the source; they are usually repeats but may differ in a detail not shown here. Identical values can stand only once. The shares of active, inactive and inconclusive entries below differ from those in the screen. For some of these results: Potencies of inconclusive entries are doubtful fits and often do not repeat. Some structures have more than one record in an assay (separate samples or runs), and their calls can disagree. Active and inactive are the calls of the source. Unless noted, calls follow the shape of the dose curve; as a rule, active = well fitted curve in the direction sought with a large enough effect in the repeat runs; inconclusive = weak or mixed curves; inactive = no such curve, though single readings can be large; an effect the other way counts as inactive or inconclusive.

What was measured:
[1] = qHTS assay to identify small molecule antagonists of the estrogen receptor beta (ER-beta) signaling pathway - cell viability counter screen (AID 1259382); also: nearly all actives have a fitted effect of over 55% in size
How it was run: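 HEK293T ER-beta-UAS-bla, 2% charcoal-stripped FBS; compounds + 1nM E2 16 hr 37C; CellTiter-Glo luminescence, 30 min RT.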

[2] = qHTS assay to identify small molecule agonists of the estrogen receptor alpha (ER-alpha) signaling pathway in the presence of an antagonist - cell viability counter screen (AID 1259386);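 also: cells exposed to compounds for 22 h at 37 °C before the viability read; nearly all actives have a fitted effect of over 30% in size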
How it was run: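 Steps: 5-day stripped-FBS culture; seed and incubate 24hr; add ICI-182,780 (10.0nM final); pin 15-point compound titration; incubate 22hr at 37C; add CellTiter-Fluor at 21hr; read fluorescence.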

[3] = target: Progesterone receptor (Homo sapiens) (UniProt P06401); test: qHTS assay to identify small molecule agonists of the progesterone receptor (PR) signaling pathway (AID 1346784; calls by dose curve; also: nearly all actives have a fitted effect of over 30% in size); conditions: PR-UAS-bla HEK293T, beta-lactamase FRET ratio, 16 h; activation: at 92.4 µM (top of the series) unless noted
UniProt P06401, sequence (P06401 whole entry, looked up): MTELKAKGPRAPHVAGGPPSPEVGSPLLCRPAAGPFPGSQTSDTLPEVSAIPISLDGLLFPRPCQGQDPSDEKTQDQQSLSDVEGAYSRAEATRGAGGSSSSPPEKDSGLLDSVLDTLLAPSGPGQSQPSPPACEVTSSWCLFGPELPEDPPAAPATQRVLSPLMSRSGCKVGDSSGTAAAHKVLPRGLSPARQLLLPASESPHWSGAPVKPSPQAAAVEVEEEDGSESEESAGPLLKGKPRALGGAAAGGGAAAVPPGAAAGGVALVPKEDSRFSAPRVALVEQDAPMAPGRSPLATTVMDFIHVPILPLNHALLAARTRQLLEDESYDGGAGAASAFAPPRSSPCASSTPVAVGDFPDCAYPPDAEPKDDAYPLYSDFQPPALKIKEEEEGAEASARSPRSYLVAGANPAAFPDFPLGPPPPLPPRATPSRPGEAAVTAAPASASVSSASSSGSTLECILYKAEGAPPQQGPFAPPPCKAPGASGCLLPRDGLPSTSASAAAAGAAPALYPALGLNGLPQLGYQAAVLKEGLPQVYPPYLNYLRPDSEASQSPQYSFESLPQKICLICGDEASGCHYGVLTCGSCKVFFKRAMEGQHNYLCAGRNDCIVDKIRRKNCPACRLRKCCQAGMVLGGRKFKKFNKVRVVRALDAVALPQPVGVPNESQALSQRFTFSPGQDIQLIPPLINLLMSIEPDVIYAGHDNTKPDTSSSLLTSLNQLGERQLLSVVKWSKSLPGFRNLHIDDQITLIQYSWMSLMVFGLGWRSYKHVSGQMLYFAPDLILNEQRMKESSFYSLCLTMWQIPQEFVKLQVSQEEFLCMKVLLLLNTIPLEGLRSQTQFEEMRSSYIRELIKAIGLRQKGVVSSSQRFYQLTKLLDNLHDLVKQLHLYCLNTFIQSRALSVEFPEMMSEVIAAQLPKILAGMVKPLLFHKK
How it was run: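 PR-UAS-bla HEK 293T cells carrying a UAS-driven beta-lactamase reporter were seeded in medium with 2% charcoal-stripped FBS, preincubated 6 hr at 37C, then exposed to compounds in DMSO for 16 hr; agonism was read by LiveBLAzer B/G FRET fluorescence.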

[4] = qHTS assay to identify small molecule antagonists of the progesterone receptor (PR) signaling pathway - cell viability counter screen (AID 1346798); also: nearly all actives have a fitted effect of over 50% in size
How it was run: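 PR-UAS-bla HEK293T cells in medium with 2% charcoal-stripped FBS were treated with compounds plus R5020 for 16 hr at 37C. Cell viability was then read by CellTiter-Glo luminescence after 30 min at room temperature in the same wells.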

[5] = qHTS assay to identify small molecule agonists of the progesterone receptor (PR) signaling pathway - cell viability counter screen (AID 1346799; calls by dose curve; also: nearly all actives have a fitted effect of over 45% in size)
How it was run: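 PR-UAS-bla HEK293T cells, 3,000 per well in medium with 2% charcoal-stripped FBS, were preincubated 6 hr at 37C, then exposed to compounds for 16 hr; viability was read as CellTiter-Glo luminescence after 30 min at room temperature.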

[6] = qHTS assay to identify small molecule antagonists of the TGF-beta/Smad signaling pathway (AID 1346924; active = well fitted inhibition curve with a large enough effect in the signal ratio in the repeat runs, not every such curve was filed as active; inconclusive = weak or mixed curves; the % refers to the signal ratio); conditions: SBE-bla HEK293T, TGF-beta/Smad reporter, beta-lactamase ratio
How it was run: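 Read-out was FRET-substrate fluorescence (405 nm excitation; 460 and 530 nm emission) after 2 h at room temperature. Before that, cells carrying a Smad-binding-element beta-lactamase reporter in HEK 293T had been stimulated 5 h at 37 C with TGF-beta1 (0.25 ng/mL addition solution) in the presence of test compound.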

[7] = target: Progesterone receptor (Homo sapiens) (UniProt P06401); test: qHTS assay to identify small molecule antagonists of the progesterone receptor (PR) signaling pathway (AID 1346795; active = well fitted inhibition curve with a large enough effect in the signal ratio in the repeat runs, not every such curve was filed as active; inconclusive = weak or mixed curves; the % refers to the signal ratio; as to activity change, negative = inhibition: % is scaled to controls: 0 for no effect and ±100 for the full control effect); conditions: PR-UAS-bla HEK293T, beta-lactamase FRET ratio, 16 h; activity change, negative = inhibition: at 92.4 µM (top of the series) unless noted
How it was run: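 PR-UAS-bla HEK293T cells carrying a UAS-driven beta-lactamase reporter were plated in medium with 2% charcoal-stripped FBS and rested 6 hr at 37C. Compounds were added with 1 nM R5020 (final) for 16 hr, then FRET substrate loaded 2 hr at room temperature.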

[8] = Caspase-3/7 induction in CHO-K1 cells by small molecules, qHTS cell viability counter screen (AID 1346979); also: nearly all actives have a fitted effect of over 35% in size
How it was run: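 Wild-type CHO-K1 cells were seeded at 1,500 per well, rested 5hr at 37 C, then exposed to compounds in DMSO. After 16hr, CellTiter-Fluor reagent was added and fluorescence read 1hr later as the viability measure.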

[9] = Human pregnane X receptor (PXR) small molecule agonists, qHTS cell viability counter screen (AID 1346977); also: nearly all actives have a fitted effect of over 50% in size
How it was run: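 PXR-Luc HepG2 cells in medium with 5% charcoal-stripped FBS were pre-incubated 5hr, then exposed to compounds for 24hr at 37C. Viability was read in the same wells by CellTiter-Fluor fluorescence, reagent added after 23hr with a 1hr incubation.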

[10] = Caspase-3/7 induction in HepG2 cells by small molecules, qHTS assay (AID 1346978); also: nearly all actives have a fitted effect of over 15% in size
How it was run: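 Caspase-3/7 induction was measured by Caspase-Glo 3/7 luminescence (30 min, room temperature) after a 17 hr compound exposure of wild-type HepG2 cells seeded at 2,000 per well and pre-incubated 5 hr.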

[11] = qHTS assay to identify small molecule antagonists of the TGF-beta/Smad signaling pathway - cell viability counter screen (AID 1346824); also: nearly all actives have a fitted effect of over 50% in size
How it was run: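 Cytotoxicity counter-screen run in the same wells as the beta-lactamase Smad reporter read: CellTiter-Glo luminescence after 30 min at room temperature. HEK 293T SBE-bla cells had 5 hr compound exposure at 37 C with TGF-beta1 (0.25 ng/mL stock).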

[12] = qHTS assay to identify small molecule agonists of the TGF-beta/Smad signaling pathway - cell viability counter screen (AID 1346829); also: nearly all actives have a fitted effect of over 45% in size
How it was run: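 CellTiter-Glo luminescence readout; SBE-bla HEK 293T cells, overnight plating, compound 5 hr at 37 C/5% CO2, then bla substrate 2 hr RT, then CellTiter-Glo 30 min RT.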

[13] = qHTS assay to identify small molecule agonists of the TGF-beta/Smad signaling pathway (AID 1346859; active = well fitted activation curve with a large enough effect in the signal ratio in the repeat runs, not every such curve was filed as active; inconclusive = weak or mixed curves; the % refers to the signal ratio); conditions: SBE-bla HEK293T, TGF-beta/Smad beta-lactamase reporter, 5 h; activation: at 76.8 µM (top of the series)
How it was run: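 HEK 293T cells stably carrying a beta-lactamase reporter driven by the Smad binding element were seeded overnight, exposed to DMSO-dissolved compounds for 5 hr at 37 C, 5% CO2, then loaded with FRET substrate for 2 hr at room temperature.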

[14] = target: Thyrotropin-releasing hormone receptor (Homo sapiens) (UniProt P34981); test: qHTS assay to identify small molecule antagonists of the thyrotropin-releasing hormone receptor (TRHR) signaling pathway (AID 1346877; active = well fitted inhibition curve with a large enough effect in the repeat runs, not every such curve was filed as active; inconclusive = weak or mixed curves)
UniProt P34981, sequence (P34981 whole entry, looked up): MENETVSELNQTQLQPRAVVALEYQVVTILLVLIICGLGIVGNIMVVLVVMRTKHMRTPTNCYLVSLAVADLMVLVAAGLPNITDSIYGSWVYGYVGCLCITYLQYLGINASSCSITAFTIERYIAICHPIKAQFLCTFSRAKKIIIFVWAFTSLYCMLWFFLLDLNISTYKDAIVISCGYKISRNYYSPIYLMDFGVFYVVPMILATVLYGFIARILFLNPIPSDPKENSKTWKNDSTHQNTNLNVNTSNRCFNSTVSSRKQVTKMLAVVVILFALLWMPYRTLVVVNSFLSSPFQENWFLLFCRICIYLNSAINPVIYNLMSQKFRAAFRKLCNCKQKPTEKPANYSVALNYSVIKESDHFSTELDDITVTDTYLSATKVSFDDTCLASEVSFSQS
How it was run: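 Human TRHR in HEK293 cells; inhibition of the intracellular calcium rise triggered by 1 nM TRH was followed by fluorescence over 3 min. Compounds were run at 15 concentrations, three replicates each.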

[15] = target: Thyrotropin-releasing hormone receptor (Homo sapiens) (UniProt P34981); test: qHTS assay to identify small molecule agonists of the thyrotropin-releasing hormone receptor (TRHR) signaling pathway (AID 1346891; calls by dose curve)
How it was run: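 TRHR-expressing HEK293 cells were plated 18 h at 37 °C/5% CO2, loaded with calcium dye 2 h at 37 °C, then given compound in DMSO; fluorescence was read kinetically for 3 min at 1 s intervals.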

[16] = Caspase-3/7 induction in CHO-K1 cells by small molecules, qHTS assay (AID 1346980); also: nearly all actives have a fitted effect of over 15% in size
How it was run: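 Luminescent Caspase-Glo 3/7 read (30min, room temperature) quantified apoptosis induction. Cells were wild-type CHO-K1, treated with compound for 17hr at 37 C and 5% CO2.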

[17] = activity, negative = inhibition: at 76.8 µM (top of the series) unless noted
Potency is read from the fitted curve at half-maximal effect; tags tell the direction and shape of the fitted curve or compound fluorescence and quenching.

Question: With `CCCCCCCCCCCCCCCCn1cc[n+](C)c1` as the compound, how does the Potency [1] read?
Answer: inconclusive: 35.1 µM [cytotoxic, partial curve]

Question: And the Potency [2]?
Answer: inconclusive: 31.3 µM [cytotoxic, partial curve] and active: 55 µM and active: 21.7 µM

Question: What about the Potency [3] of the same compound?
Answer: inconclusive: 69.2 µM [cytotoxic, single point]

Question: And the Potency [4]?
Answer: inconclusive: 78.6 µM [cytotoxic, single point]

Question: What about the Potency [5] of the same compound?
Answer: inconclusive: 78.6 µM [cytotoxic, single point] and active: 61.7 µM and active: 30.7 µM

Question: And the Potency [6, 17]?
Answer: inconclusive: 19.9 µM [rising, partial curve] and inconclusive: 19.7 µM [rising, partial curve] and inconclusive: 15.5 µM [rising, partial curve]

Question: Which Potency [1] does the source give for `[CH3][Sn]([CH3])([Cl])[Cl]` here?
Answer: inconclusive: 69.7 µM [cytotoxic, single point]

Question: What about the Potency [2] of the same compound?
Answer: inconclusive: 69.7 µM [cytotoxic, partial curve, poor fit] and inconclusive: 17.2 µM [cytotoxic, partial curve, poor fit]

Question: What about the Potency [7] of the same compound?
Answer: inconclusive: 69.7 µM

Question: And the Potency [4]?
Answer: inactive

Question: And the Potency [5]?
Answer: inconclusive: 38.6 µM [rising, partial curve]

Question: And the Potency [8]?
Answer: active: 31.1 µM and active: 54.5 µM

Question: Which Potency [1] does the source give for `OCC(c1ccc(Cl)cc1)c1ccc(Cl)cc1` here?
Answer: inconclusive: 54.5 µM [cytotoxic, partial curve]

Question: What about the Potency [3] of the same compound?
Answer: inconclusive: 61.1 µM [cytotoxic, partial curve, poor fit]

Question: And the Potency [7]?
Answer: inconclusive: 19.3 µM [rising, partial curve, poor fit]

Question: And the Potency [5]?
Answer: inactive

Question: And the activity, negative = inhibition [6, 17]?
Answer: inconclusive: -1.72%

Question: What about the Potency [9] of the same compound?
Answer: inconclusive: 77 µM [cytotoxic, single point]

Question: What about the Potency [10] of the same compound?
Answer: inconclusive: 68.6 µM [activator]

Question: And the Potency [8]?
Answer: inconclusive: 68.6 µM [cytotoxic, single point]

Question: What does the source list for `[Cl][Hg][c]1ccccc1`?
Answer: Potency [1]: active: 3.06 µM; Potency [3]: inconclusive: 1.72 µM [cytotoxic, full curve]; Potency [7]: inconclusive: 2.17 µM [rising, partial curve]; Potency [4]: active: 3.06 µM; Potency [5]: active: 3.06 µM; Potency [11]: active: 19.5 µM; Potency [12]: active: 17.4 µM; Potency [13]: inconclusive: 7.76 µM [fluorescent, partial curve]; Potency [14]: inconclusive: 30.1 µM [inhibitor, partial curve]; Potency [15]: inconclusive: 30.9 µM [activator, partial curve]; Potency [6, 17]: inconclusive: 12.3 µM [rising, full curve]; Potency [9]: active: 1.54 µM; Potency [8]: active: 0.486 µM

Question: Which Potency [1] does the source give for `CCCCCCCCCCCCOS(=O)(=O)O` here?
Answer: inconclusive: 30.2 µM [cytotoxic, partial curve] and active: 54.5 µM and inconclusive: 68.6 µM [cytotoxic, single point]

Question: And the Potency [7]?
Answer: inconclusive: 68.6 µM

Question: And the activity change, negative = inhibition [7]?
Answer: inconclusive: -29.2%

Question: What about the Potency [5] of the same compound?
Answer: active: 27.3 µM and inconclusive: 30.6 µM [cytotoxic, partial curve] and inconclusive: 27.3 µM [cytotoxic, partial curve]

Question: And the Potency [11]?
Answer: inconclusive: 61.7 µM [cytotoxic, single point]

Question: And the Potency [13]?
Answer: inconclusive: 24.2 µM [falling, partial curve, poor fit]

Question: What about the Potency [8] of the same compound?
Answer: inconclusive: 77 µM [cytotoxic, single point]

Question: For `CCCCC/C=C\C/C=C\C/C=C\C/C=C\CCCC(=O)NCC(=O)O`, which Potency [1] is on record?
Answer: inconclusive: 26.6 µM [cytotoxic]

Question: And the Potency [7]?
Answer: active: 26.6 µM

Question: And the Potency [4]?
Answer: inactive

Question: What about the Potency [5] of the same compound?
Answer: inconclusive: 33.5 µM [cytotoxic, single point]

Question: What about the Potency [8] of the same compound?
Answer: inconclusive: 29.8 µM [cytotoxic, single point]

Question: And the Potency [16]?
Answer: inconclusive: 26.6 µM [activator, partial curve]

Question: Which results are given for `O=C(CCl)c1ccc(Cl)cc1Cl`?
Answer: Potency [1]: inconclusive: 68.2 µM [cytotoxic, single point] and inconclusive: 29.8 µM [cytotoxic, partial curve, poor fit]; activity change, negative = inhibition [7]: inconclusive: -28.1% [at 42.5 µM]; Potency [4]: inconclusive: 38.4 µM [cytotoxic, partial curve, poor fit]; Potency [5]: inconclusive: 1.08 µM [cytotoxic, full curve, poor fit]; Potency [12]: inactive and inconclusive: 26.8 µM [cytotoxic, single point]; activity, negative = inhibition ([6]; at 35.3 µM (top of the series)): inconclusive: -23.7%; activity, negative = inhibition ([6]; at 76.8 µM (top of the series)): inconclusive: 0.468%

Question: For `O=C(O)C1C2CCC(O2)C1C(=O)O` (stereo unspecified), which Potency [1] is on record?
Answer: inactive

Question: What about the Potency [2] of the same compound?
Answer: inconclusive: 22.3 µM [rising, partial curve]

Question: And the Potency [3]?
Answer: inconclusive: 61.9 µM [falling, single point]

Question: And the activity change, negative = inhibition [7]?
Answer: inconclusive: -19.9% and inconclusive: -18.1%

Question: And the activity, negative = inhibition [6, 17]?
Answer: inconclusive: 17.6% and inconclusive: 21.3%

Question: And the Potency [9]?
Answer: inconclusive: 39.8 µM [cytotoxic, partial curve] and inconclusive: 28.1 µM [cytotoxic, partial curve]

Question: What about the Potency [10] of the same compound?
Answer: inconclusive: 49.2 µM [activator, partial curve] and inconclusive: 56 µM [activator]

Question: What about the Potency [16] of the same compound?
Answer: inconclusive: 61.9 µM [activator, partial curve, poor fit]
